Source: PubChem BioAssay AID651820 (National Center for Advancing Translational Sciences (NCATS), 2012)
The campaign covered roughly 340,000 compounds. About 12,000 (3.5%) were called active. The shares of active, inactive and inconclusive entries below differ from those in the screen. Calls follow the shape of the dose curve; as a rule, active = well fitted inhibition curve with a large enough effect; inconclusive = small, poorly fitted or top-dose-only effect, or another doubt; inactive = no such curve, though single readings can be large or run the other way. No potency is given beside an inconclusive call; the fits are too rough.

Test: qHTS Assay for Inhibitors of Hepatitis C Virus (HCV)
Settings: Huh7.5.1 HCVcc-Cre (HCVcc is cell-culture hepatitis C virus) infection, luciferase reporter, 44 h; series mostly up to 41.8 µM
Outline: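 1,000 cells/well; 4 h culture; + compound; + HCVcc-Cre (~0.5 moi); 44 h; luciferase substrate, RT 15 min; read 15 sec.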
Potency is read from the fitted curve at half-maximal effect; tags tell the direction and shape of the fitted curve.

SMILES | Potency
COC(=O)C1=C(c2ccc(-c3ccccc3)c(F)c2)C[C@@H]2CC[C@H]1N2C(=O)NC(C)C | inconclusive [inhibitor, single point]
CCC(C)Nc1nc(N)c([N+](=O)[O-])c(NCc2ccccc2)n1 (centres undefined) | active: 11.2 µM
COc1ccccc1Nc1ncnc2c1c(C)c(C)n2CCO | inconclusive [inhibitor, partial curve]
Cc1cccc(NC(=O)CSc2nnc(NC(=O)C3CCC3)s2)c1 | inconclusive [inhibitor, single point]
Clc1ccc(-c2nn3c(C4COc5ccccc5O4)nnc3s2)cc1 (centres undefined) | inactive
CC(C)Oc1cccc(C(=O)Nc2ccc(Br)cc2F)c1 | inconclusive [inhibitor, single point]
CCN1CCN(c2ccc([N+](=O)[O-])c(Sc3nc4ccccc4[nH]3)c2)CC1 | active: 22.4 µM
Cc1ccccc1OCC(O)CNC1CCC(NCC(O)COc2ccccc2C)CC1 (centres undefined) | inconclusive [inhibitor, partial curve]
CC(C)(CN1CCNCC1)NS(=O)(=O)c1ccc(Cl)cc1 | active: 3.98 µM
CCC(c1nnnn1Cc1ccco1)N1CCN(c2cc(Cl)ccc2C)CC1 (centres undefined) | inconclusive [inhibitor, single point]
C[C@@H]1CN([C@@H](C)CO)C(=O)c2cccc(NS(=O)(=O)c3cccs3)c2O[C@H]1CN(C)Cc1ccc(C(F)(F)F)cc1 | inconclusive [inhibitor, full curve, poor fit]
O=C(CSc1nc2c(c(=O)n1-c1ccc(Br)cc1)SCC2)NCC1CCCO1 (centres undefined) | inconclusive [inhibitor, single point]
CN(CC(=O)Nc1ccc(OC(F)(F)F)cc1)C(=O)C1CCC1 | inactive
Cc1cccc2nc(-c3ccco3)c(Nc3ccc4c(c3)OCCO4)n12 | inactive
CCOC(=O)c1c(NC(=S)N2CCCCC2)sc2c1CCN(C(=O)OCC)C2 | inactive
COc1ccccc1N=c1oc2cc(O)ccc2cc1C(=O)NCC1CCCO1 (centres undefined) | inactive
COc1ccc(C(=O)N(C)C2CCCN(Cc3ccccc3F)C2)cc1OC (centres undefined) | inactive
CCC(C)c1c(O)nc(SCc2ccccc2)[nH]c1=O (centres undefined) | inactive
CC(NCc1cc(Br)ccc1OCC(N)=O)C12CC3CC(CC(C3)C1)C2 (centres undefined) | inconclusive [inhibitor, single point]
COc1cccc(COC(=O)c2ccc3c(c2)NC(=O)C(C)S3)c1OC (centres undefined) | inconclusive [inhibitor, single point]
O=C(CCN1CCN(CCO)CC1)Nc1ccc(C2CCCC2)cc1 | inconclusive [inhibitor, single point]
COc1ccc(NS(=O)(=O)c2cc(NC(=O)[C@@H](NC(=O)c3ccccc3)C(C)C)ccc2C)cc1 | inconclusive [inhibitor, single point]
CN(C)CC(=O)N1c2ccccc2CCc2ccc(NC(=O)c3ccc(N)cc3)cc21 | inconclusive [inhibitor, full curve]

SMILES | Potency
CCOC(=O)Cc1csc(Nc2ccc(Cl)cc2)n1 | inconclusive [inhibitor, partial curve]
CCCCNc1nc(CC(C)=O)ns1 | inconclusive [inhibitor, single point]
CCC(C(=O)NC1CCCCC1)N(Cc1cccs1)C(=O)CCC(=O)Nc1cc(C)on1 (centres undefined) | active: 11.2 µM
Cc1ccc2c(c1)-n1c(nc3ccc(C)cc3c1=O)C(Cc1ccccc1)NC2=O (centres undefined) | inactive
COc1cc(/C=C2\SC(=Nc3ccccc3)N(Cc3ccco3)C2=O)ccc1OC(C)C(=O)O (centres undefined) | inconclusive [inhibitor, single point]
C=CCc1c(C)nc(-c2ccccc2)nc1N/N=C(\C)c1ccc(N)cc1 | inconclusive [inhibitor, single point]
Cc1nc(NCCCn2ccnc2)c2ccccc2n1 | inactive
CCOC(=O)c1cnc(-n2nc(C)cc2C)nc1Nc1ccc(C)cc1 | inactive
COc1ccc(NC(=S)N2CCN(C(c3ccccc3)c3ccccc3)CC2)c(OC)c1 | inconclusive [inhibitor, single point]
CCc1ccccc1NC(=O)CNC(=O)CCc1nc2sc3c(c2c(=O)[nH]1)CCCC3 | inconclusive [inhibitor, full curve]
CNC(=O)c1csc(Cc2c(Cl)sc3ccc(Cl)cc23)n1 | inconclusive [inhibitor, single point]
COC(=O)[C@H](Cc1ccccc1)NC(=O)C1(OC(C)=O)CC(OC(C)=O)C(OC(C)=O)C(OC(C)=O)C1 (some centres undefined) | inactive
O=P(O)(O)CCP(=O)(c1ccccc1)c1ccccc1 | inactive
CC(=O)Nc1ccccc1NC(=O)c1ccc(C)c(C)c1 | inactive
CCOC(=O)C1=CN(Cc2ccco2)S(=O)(=O)N(C)C1c1ccc(F)c(Cl)c1 (centres undefined) | inconclusive [inhibitor, single point]
Cc1cccc(OC(C)C(=O)OCC(=O)Nc2sccc2C(N)=O)c1 (centres undefined) | inconclusive [inhibitor, partial curve]
COc1ccc2c(c1)C(=O)N1[C@H]3c4cc(Cl)ccc4OC[C@@H]3[C@H](c3ccccc3)[C@]1(C)C(=O)N2 | inconclusive [inhibitor, single point]
CC(C)COc1cccc(C(=O)Nc2ccc(N3CCOCC3)cc2N2CCOCC2)c1 | active: 7.94 µM
O=C(Nc1ccc2ccccc2c1)c1cnccn1 | inactive
COc1ccccc1N1CCN(C(=O)CSc2ncccc2-c2nc3ccccc3[nH]2)CC1 | inconclusive [inhibitor, single point]
COc1cc([C@@H]2[C@H]3CNCC=C3C(C#N)=C(N)C2(C#N)C#N)ccc1OC(C)C | inconclusive [inhibitor, full curve]
FC(F)Oc1ccc(NC(=S)NNc2ccnc3cc(Cl)ccc23)cc1 | active: 3.98 µM
COC(=O)C1=C(c2cccc(OCc3ccccc3)c2)C[C@@H]2CC[C@H]1N2C(=O)NCc1ccc(Br)cc1 | inconclusive [inhibitor, single point]

SMILES | Potency
COc1cc2c(cc1NC(=O)CCCCCN1C(=O)CCC1=O)oc1ccccc12 | active: 3.55 µM
Cc1cc(Cl)c2oc(C(=O)N(C)CCCCN3CCOCC3)c(C)c2c1 | inconclusive [inhibitor, partial curve]
CCOc1cc(NC(=S)NCC2CCCO2)c(OCC)cc1NC(=O)c1ccc(OC)cc1 (centres undefined) | inconclusive [inhibitor, partial curve]
Cc1ccc(C(=O)N/N=c2\oc3ccccc3cc2C(N)=O)cc1 | inactive
CCCn1c(N)c(C(=O)CSc2nnc(C3CC3)n2-c2ccccc2)c(=O)[nH]c1=O | inconclusive [inhibitor, single point]
CC(C)=C1C2CCC1C1C(=O)N(NC(=O)COc3ccc(C(C)(C)C)cc3)C(=O)C21 (centres undefined) | inconclusive [inhibitor, partial curve]
COc1ccc(CN2CCN(C(=O)CN3C(=O)C4C5C=CC(C5)C4C3=O)CC2)c(OC)c1OC (centres undefined) | inconclusive [inhibitor, single point]
COc1ccccc1CNC(=O)COC(=O)c1c[nH]c2ccccc12 | inconclusive [inhibitor, single point]
COc1ccc(C(=O)Nc2ccc(Cl)cc2F)cc1S(=O)(=O)N1CCCC1 | inconclusive [inhibitor, single point]
CC(OC(=O)CCc1nc2ccccc2c(=O)[nH]1)C(=O)Nc1cccc(C(F)(F)F)c1 (centres undefined) | inactive
COc1cc(NC(=O)c2ccccc2F)ccc1NC(=O)c1cc2ccccc2o1 | inconclusive [inhibitor, full curve, poor fit]
COc1cc(OC)cc(C(=O)Nc2ccc3nc4n(c(=O)c3c2)CCCC4)c1 | inconclusive [inhibitor, partial curve]
O=C(CCNC(=O)c1ccc(Cl)cc1)Nc1c(F)c(F)cc(F)c1F | inactive
CCN(CC)S(=O)(=O)c1csc(C(=O)Nc2ccccn2)c1 | inconclusive [inhibitor, partial curve]
CC(C)c1c(C(=O)N/N=C/c2ccccc2C(=O)O)nnn1-c1nonc1N | inconclusive [inhibitor, partial curve, poor fit]
CC1CCCCC1NC1CCN(C)CC1 (centres undefined) | inconclusive [inhibitor, partial curve]
CCN(CC)S(=O)(=O)c1ccc(Cl)c(NC(=O)c2ccc(C#N)cc2)c1 | inconclusive [inhibitor, single point]
CCSc1nnc(NC(=O)c2ccccc2)s1 | inactive
COC(=O)c1csc2c(C(F)(F)F)cc(N3CCN(C(=O)Nc4ccccc4)CC3)nc12 | inconclusive [inhibitor, partial curve]
Cc1ccc(S(=O)(=O)N2CCOCC2)cc1C(=O)Nc1ccc(N2CCCCCC2)cc1 | active: 5.01 µM
CCc1cc(=O)oc2cc3oc(C)c(C)c3cc12 | inconclusive [inhibitor, full curve, poor fit]
COCCn1c(=O)[nH]c2cc(C(=O)Nc3cc(C)cc(C)c3)ccc2c1=O | inconclusive [inhibitor, single point]
Cc1ccc(-c2nnc(NC(=O)c3ccc([N+](=O)[O-])o3)o2)c(C)c1 | inconclusive [inhibitor, partial curve]
